From the supplement of paper PMC9446081
The campaign covered roughly 39,000 compounds. About 220 (0.56%) showed activity. Some of the results follow.

tested on: Escherichia coli K-12 BW25113; assay: relative growth (OD600 normalised to plate interquartile mean) (fraction); higher = less growth inhibition, active = 0.2 or less; conditions: 50 µM; LB; incubation time: overnight (16-24 h)
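Also: static incubation at 37 °C against the wild-type strain, values averaged over two biological replicates.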

| Structure (SMILES) | relative growth |
| --- | --- |
| O=C(O)CC1(n2cnnn2)CCSCC1 | inactive: 1 |
| CN(C)CN1C(=O)c2ccccc2C1=O | inactive: 1.01 |
| C[C@H]1CN([C@@H](C)CO)C(=O)c2cc(NC(=O)Cn3cnnn3)ccc2O[C@@H]1CN(C)Cc1ccc(Oc2ccccc2)cc1 | inactive: 0.985 |
| C[C@@H]1CN([C@H](C)CO)C(=O)c2cc(NC(=O)c3ccccc3)ccc2O[C@@H](C)CCCCO[C@H]1CN(C)C(=O)NC1CCCCC1 | inactive: 0.967 |
| Cc1ccc(S[C@]2(C(=O)NCCN3CCOCC3)CC(=O)N(Cc3cc(C(F)(F)F)cc(C(F)(F)F)c3)[C@@H]2c2ccc(CO)cc2)cc1 | inactive: 0.912 |
| COc1ccc(-c2ccc3c(c2)O[C@H](CN(C)CC2CCOCC2)[C@H](C)CN([C@@H](C)CO)S3(=O)=O)cc1 | inactive: 0.988 |
| CC(C)=CCC[C@](C)(O[C@@H]1O[C@H](CO[C@@H]2OC[C@@H](O)[C@H](O)[C@H]2O)[C@@H](O)[C@H](O)[C@H]1O)[C@H]1CC[C@]2(C)[C@@H]1[C@H](O)C[C@@H]1[C@@]3(C)CC[C@H](O[C@@H]4O[C@H](CO)[C@@H](O)[C@H](O)[C@H]4O)C(C)(C)[C@@H]3CC[C@]12C | inactive: 0.738 |
| Cc1ccc(S(=O)(=O)N(C)C[C@H]2Oc3c(NC(=O)Nc4ccc(C(F)(F)F)cc4)cccc3C(=O)N([C@@H](C)CO)C[C@@H]2C)cc1 | inactive: 0.81 |
| COCC(=O)Nc1ccc2c(c1)C(=O)N(C)C[C@@H](OC)[C@H](C)CN(C(=O)c1ccccc1F)[C@@H](C)CO2 | inactive: 1.06 |
| COc1ccc(CN(C)C[C@H]2Oc3ccc(NS(C)(=O)=O)cc3CC(=O)N([C@H](C)CO)C[C@H]2C)cc1 | inactive: 0.992 |
| O=C1N(Cc2ccccc2)Cc2ccccc2[C@H]2OC(c3ccc(OCCCO)cc3)=N[C@@]12CCS(=O)(=O)c1ccccc1 | inactive: 1.04 |
| C[C@H]1CN([C@@H](C)CO)C(=O)c2cccc(NC(=O)c3cnccn3)c2O[C@H]1CN(C)Cc1ccc2c(c1)OCO2 | inactive: 0.989 |
| CO[C@@H]1[C@@H](O)[C@H](O)[C@H](O)[C@H](O)[C@@H]1O | inactive: 0.965 |
| Cc1nn(CC(=O)O)c(=O)c2cccn12 | inactive: 1.01 |
| CO[C@@H]1CN(C)C(=O)c2cc(NC(=O)C3CC3)ccc2OC[C@@H](C)N(C(=O)Nc2ccc(C(F)(F)F)cc2)C[C@H]1C | inactive: 0.95 |
| CCOC(=O)[C@H](Cc1ccccc1)NC(=O)Cn1cc(C(=O)NO)nn1 | inactive: 1 |
| Cc1noc(C)c1S(=O)(=O)Nc1cccc2c1O[C@@H](CN(C)S(=O)(=O)c1ccc(Cl)cc1)[C@@H](C)CN([C@H](C)CO)C2=O | inactive: 1.01 |
